# Reference: the supplement of paper PMC3334620
# In all, about 33,000 sequences were measured (“E-score (-0.5 to 0.5)”: median about -0.017, highest 2% from about 0.3 on). Some of the results follow.
# Target: T1, Sut1 (UniProt P53032)
# T1 sequence: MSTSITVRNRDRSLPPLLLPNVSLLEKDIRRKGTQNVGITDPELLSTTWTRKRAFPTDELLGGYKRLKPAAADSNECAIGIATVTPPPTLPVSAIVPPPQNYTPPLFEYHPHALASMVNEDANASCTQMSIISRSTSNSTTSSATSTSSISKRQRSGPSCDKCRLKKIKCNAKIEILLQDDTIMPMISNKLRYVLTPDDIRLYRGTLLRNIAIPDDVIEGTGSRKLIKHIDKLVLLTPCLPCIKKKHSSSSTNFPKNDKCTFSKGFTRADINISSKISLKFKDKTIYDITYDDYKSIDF
# Experiment: PBM E-score (8-mer binding enrichment) (E-score (-0.5 to 0.5)); higher = stronger / more preferred TF binding; most listed sequences are background and not binding sites
# Conditions: protein concentration: 200 nM; construct: GST-full length
# Procedure, shortened: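 Bound GST-tagged yeast transcription factors, applied at about 100-200 nM to double-stranded universal all-10-mer Agilent arrays, were detected with fluorescent anti-GST. Scans were normalised with masliner. A modified Wilcoxon-Mann-Whitney statistic, the E-score, was assigned to each ungapped eight-base word pooled with its reverse complement by the Universal PBM Analysis Suite.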
row,Sequence,PBM E-score
1,CCTTTCCA,0.00391
2,ATCCATCA,-0.0141
3,GGTCAGAC,-0.257
4,AATACTCC,0.199
5,CAGTGCCC,-0.256
6,CTTATCCC,-0.108
7,GAACTAAC,0.104
8,CGTCGGGC,-0.251
9,AACTGGAT,0.118
10,AATCTATC,0.164
11,ACTGAGGC,0.00487
12,CTGCCCGC,-0.151
13,GACCTTTA,0.00807
14,GCACGGGA,-0.2
15,GAAGCGTA,0.0447
16,CGGTTATA,0.00682
17,AGGAATTG,-0.0346
18,GGCCGCGA,-0.208
19,CAGCTGAA,-0.109
20,CCGAGTAG,0.112
21,ATCCCGGG,-0.07
22,ATCTCCGA,0.477
23,CGCACAAC,-0.108
24,TCTTCACA,0.0757
25,ACTGAGTC,-0.0434

row,Sequence,PBM E-score
1,GTGATATA,0.0152
2,CACCTAGC,-0.157
3,ATGAAGCC,0.0311
4,ACTAACCT,0.128
5,TGTCACAA,0.195
6,CTATACCC,-0.14
7,CTTACCAA,0.124
8,GCCTGTCC,-0.154
9,CCAACACG,0.0805
10,GTACCGCA,0.102
11,AATGAATA,0.235
12,CGGACGAG,0.0125
13,GATGCTGA,-0.212
14,ACGGAAAG,0.25
15,GACGCTAC,-0.101
16,ACGACCCC,-0.265
17,CTACTAGC,0.117
18,GGCCCCCA,-0.361
19,ACTCAAAC,0.0752
20,AACAATTG,-0.0164
21,GGGGGGTA,-0.215
22,GACTTACC,0.102
23,CTCAGCGC,-0.109
24,CAGATGAC,-0.251
25,AACGGCAT,0.111

row,Sequence,PBM E-score
1,ACAACAGT,0.0455
2,ATCCGCGC,-0.0272
3,TCCGCAGA,0.133
4,AATCTCGG,0.147
5,GATCAACA,-0.02
6,CGTGAGAC,-0.0834
7,CACGAGCA,-0.0524
8,AAACCTGG,-0.112
9,CCCGCGGC,-0.0819
10,AAATCACG,0.182
11,CCCTCAGC,-0.298
12,AGCCCCGG,0.22
13,GGCCTCAA,-0.109
14,GGGCGCGA,-0.167
15,CTCCAAGC,-0.107
16,AGAGGAAG,-0.187
17,CATACATG,0.105
18,ACTCGCAA,-0.0227
19,ATGTTACG,-0.00828
20,CAGCCTCC,-0.243
21,ACGCCCGG,-0.00596
22,GGGTTTTA,0.0116
23,CTTTACTC,0.0111
24,CGGGGCTA,-0.158
25,AAGTCTTG,-0.131

row,Sequence,PBM E-score
1,ATAAAGTA,0.279
2,AAAAGCTA,0.027
3,CACCCTCA,-0.194
4,AGTACCCA,-0.129
5,TCCTTAAA,0.0247
6,CTGCTCCC,-0.269
7,AAATCGGC,0.0135
8,AGCAACCA,0.26
9,CGGTGACC,-0.0984
10,AGTATTAG,0.185
11,AAAAACCT,0.102
12,CTGCCCGA,-0.153
13,AAGCGCCC,-0.315
14,AAAGGGTA,-0.054
15,CAAGGGGA,-0.185
16,TCAAATCA,0.0928
17,CGAGTCTA,-0.0512
18,AGGGCCTG,-0.311
19,ATTGCCTG,-0.0331
20,GAACATTA,0.0725
21,AACTGATG,0.0347
22,CACGGATG,-0.0768
23,CCATCACA,-0.109
24,GTACGAAA,0.0843
25,GAACTATA,0.214

row,Sequence,PBM E-score
1,ACTCTAGG,-0.17
2,CGGACAGC,0.119
3,CCGAGAGA,0.0584
4,AGTTATAT,0.29
5,AACTCATA,0.0842
6,ACGCGCGA,-0.12
7,AAAGAGCA,0.127
8,ACAGAGTC,-0.193
9,GTTACCAA,0.0418
10,CGGGACAG,-0.0243
11,AGCGCCAA,-0.159
12,GAGTTTCC,0.12
13,GTTGCTCA,-0.0746
14,ACTCACCT,-0.157
15,GGTATGCA,-0.294
16,CGGTATAC,-0.0915
17,AGAGGCCT,-0.237
18,ATCGATGG,-0.0596
19,AAGGTTGC,-0.164
20,CGCTTGGA,-0.152
21,CAGTATGC,-0.137
22,TATCTCGA,0.108
23,AGTGTAAA,0.0955
24,GCCTCACC,-0.0723
25,GGCTCGAC,-0.103

row,Sequence,PBM E-score
1,GTGCCAGA,-0.23
2,ACTCCAAC,-0.0146
3,GCAGCAAA,-0.0223
4,GATCCTCC,-0.188
5,ACTCTAAT,0.156
6,GGGATTGA,-0.00062
7,CACGTGTC,-0.248
8,GGGCCCAA,-0.0674
9,CGGGGGGC,-0.26
10,AAATCTAA,0.0713
11,AGTTTTGA,0.00406
12,GCCTGAAC,-0.274
13,CTTCAGAA,0.0634
14,CCCTACGC,-0.315
15,CCCCACCC,-0.0481
16,GGGCCACC,-0.146
17,CTCGGCGA,0.0809
18,AAAGGAAA,0.183
19,ATGTAACA,0.191
20,GTGTTTCA,0.0164
21,AGGAAGGC,-0.13
22,GCTATAAC,0.068
23,ACCTTCGG,0.147
24,CAATGTCC,0.0764
25,ATCAGCCC,-0.221

row,Sequence,PBM E-score
1,CCATATTC,-0.0765
2,ATATTTAA,0.303
3,GACATTGC,-0.0607
4,CGGTACTC,-0.0748
5,ATGGTCCC,-0.225
6,AAGAGCGG,0.0491
7,AGAGCAAT,0.0229
8,TCACCCGA,-0.005
9,CACCTTTC,-0.139
10,TCAGACGA,-0.0583
11,AAAAAGAC,0.119
12,AGCTGATA,-0.0181
13,AAGAGGAC,-0.0407
14,CACATCAC,-0.135
15,CTAAGTAC,0.0447
16,GCATAAAC,0.109
17,AACATAGT,0.217
18,ATAGCTCA,-0.086
19,ATCCTGTC,0.0454
20,CGGGCCAA,-0.15
21,CACTAAGA,0.0726
22,GCAGCGCC,-0.218
23,ACGTAGCT,-0.00505
24,CGGTGTCC,0.0917
25,TGCCCTAA,-0.124

row,Sequence,PBM E-score
1,AAGATAAC,0.209
2,ACTTTTTA,0.214
3,GGCGTGTA,-0.211
4,ATCGTAAA,0.0376
5,GCAACGCA,-0.132
6,CTGGGTGA,-0.0506
7,AATGGCGC,-0.0799
8,AAGGTGGA,0.0583
9,CGGTAAAC,-0.128
10,ATGCCAAA,-0.102
11,CGATTACA,-0.00072
12,AGACATCG,-0.157
13,ATCCTGAA,0.105
14,GTCCCCGA,0.066
15,CGACTCAA,0.0624
16,CGACGTAA,-0.00534
17,ACCGGTAT,-0.059
18,CACAGCAA,0.187
19,ACTGCTAT,0.0327
20,TAGACTCA,0.0311
21,ACTCGGTC,-0.072
22,GCGCAAGC,-0.234
23,ACACCAGC,-0.143
24,ACGCTTAA,0.00904
25,ACTAGTCC,0.236

row,Sequence,PBM E-score
1,ATTAGTTG,0.163
2,GCCTACTA,0.00387
3,CTAATACC,-0.0565
4,AACTCGCG,0.125
5,GGGTAAGA,-0.0307
6,TACCATCA,-0.106
7,ATAATAAA,0.339
8,AGGGGACC,-0.251
9,CGCTTTGA,0.00187
10,AGGACTAG,-0.0577
11,GATGCACC,-0.0128
12,CGTTTGTC,-0.162
13,GATTGCCC,-0.142
14,ACTGCTTC,-0.168
15,CTAACCAC,-0.0263
16,CAAGAAGG,-0.0822
17,AATGTTCA,0.137
18,GTGGACCA,-0.204
19,GGTCGGTA,-0.0674
